From PubChem BioAssay AID720708 (National Center for Advancing Translational Sciences (NCATS), 2013)
The whole screen tested about 360,000 compounds, of which about 660 (0.18%) were called active. Inconclusive means that the source gave no clear call. Such entries were picked first, then a sample of the others. Calls follow the shape of the dose curve; as a rule, active = well fitted inhibition curve with a large enough effect; inconclusive = small, poorly fitted or top-dose-only effect; inactive = no such curve, though single readings can be large or run the other way. Potencies of inconclusive entries are left out as doubtful fits.

The compounds below were run against Rap guanine nucleotide exchange factor 4 (Homo sapiens) (UniProt Q8WZA2) (assay: qHTS for Antagonist of cAMP-regulated guanine nucleotide exchange factor 2 (EPAC2): primary screen). Details: EPAC2 GEF exchange of Rap1B-BODIPY-GDP, fluorescence; series mostly up to 114 µM.
Sequence of UniProt Q8WZA2 (Q8WZA2 whole entry, looked up): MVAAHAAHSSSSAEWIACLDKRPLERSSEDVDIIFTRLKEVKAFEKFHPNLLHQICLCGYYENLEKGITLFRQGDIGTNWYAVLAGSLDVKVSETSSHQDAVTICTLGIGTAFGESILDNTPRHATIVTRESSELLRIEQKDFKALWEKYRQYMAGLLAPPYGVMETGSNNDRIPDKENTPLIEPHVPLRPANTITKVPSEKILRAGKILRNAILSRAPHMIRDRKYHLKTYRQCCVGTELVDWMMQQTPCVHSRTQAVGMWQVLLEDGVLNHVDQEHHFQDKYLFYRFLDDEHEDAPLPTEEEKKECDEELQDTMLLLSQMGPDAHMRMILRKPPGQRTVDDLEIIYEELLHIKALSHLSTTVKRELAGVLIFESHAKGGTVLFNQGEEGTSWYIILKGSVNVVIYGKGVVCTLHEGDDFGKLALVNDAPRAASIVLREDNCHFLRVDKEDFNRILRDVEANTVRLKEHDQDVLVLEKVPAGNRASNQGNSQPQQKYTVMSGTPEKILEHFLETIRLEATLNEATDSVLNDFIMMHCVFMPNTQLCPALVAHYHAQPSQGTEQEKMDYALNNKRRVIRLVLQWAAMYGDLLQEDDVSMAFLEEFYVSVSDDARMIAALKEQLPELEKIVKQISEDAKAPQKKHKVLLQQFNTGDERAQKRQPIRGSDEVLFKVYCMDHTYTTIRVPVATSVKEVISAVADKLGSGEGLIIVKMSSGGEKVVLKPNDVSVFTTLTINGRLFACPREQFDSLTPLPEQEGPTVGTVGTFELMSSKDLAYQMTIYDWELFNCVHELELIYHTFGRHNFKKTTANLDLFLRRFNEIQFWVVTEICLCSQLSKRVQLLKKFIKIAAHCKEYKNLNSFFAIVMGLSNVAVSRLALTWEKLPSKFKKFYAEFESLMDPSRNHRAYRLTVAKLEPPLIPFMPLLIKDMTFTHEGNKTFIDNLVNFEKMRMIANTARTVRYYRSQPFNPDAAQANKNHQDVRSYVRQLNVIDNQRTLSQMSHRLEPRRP
Also: nearly all actives have a fitted effect of over 45% in size.
Potency is read from the fitted curve at half-maximal effect; tags tell the direction and shape of the fitted curve.

Row | SMILES | Potency
1 | C[C@H]1CN([C@@H](C)CO)S(=O)(=O)c2ccc(-c3ccccc3)cc2O[C@H]1CN(C)C(=O)C1CCC1 | inconclusive [inhibitor, partial curve]
2 | COc1cc(/C=C(\C#N)c2nc(-c3cc4ccccc4oc3=O)cs2)ccc1O | inconclusive [inhibitor, partial curve]
3 | COc1cccc(NC(=O)c2ccccc2Oc2ccccc2)c1 | inconclusive [inhibitor, partial curve]
4 | O=C(CN1CCOC1=O)N1CCCC(N2CCN(c3cccc(C(F)(F)F)c3)CC2)C1 (centres undefined) | inconclusive [inhibitor, single point]
5 | O=C1NC(=O)/C(=C/c2ccc(-c3cc(C(=O)O)ccc3Cl)o2)S1 | inconclusive [inhibitor, partial curve]
6 | CCOC(=O)Cn1c(=O)n(Cc2ccccc2)c(=O)c2cccnc21 | inactive
7 | O=C(CCSc1nc(-c2ccco2)cc(C(F)(F)F)n1)N1CCCc2ccccc21 | inconclusive [inhibitor, single point]
8 | CCCCCNC(=O)C1C(=O)Nc2ccccc2C(=O)N1c1ccc(OC)cc1 (centres undefined) | inactive
9 | O=C(/C=C/c1ccc([N+](=O)[O-])cc1)c1ccco1 | inactive
10 | COc1ccc(-c2csc3nc(C)nc(N4CCC(C)CC4)c23)cc1OC | inconclusive [inhibitor, partial curve]
11 | CCOc1cc(/C=C2\SC(=S)N(C(C(=O)O)c3ccccc3)C2=O)ccc1O (centres undefined) | inconclusive [inhibitor, partial curve]
12 | Oc1ccccc1C=NNC(=S)NC1CC2C=CC1C2 (centres undefined) | inconclusive [inhibitor, partial curve]
13 | CCn1c(NCc2cc(Cl)ccc2O)nc2ccccc21 | inactive
14 | CC(C)(C)/C(COc1ccccc1[N+](=O)[O-])=N/O | inconclusive [inhibitor, single point]
15 | COc1cc(/C=C2\SC(c3ccccc3)=NC2=O)cc(Cl)c1O | inconclusive [inhibitor, partial curve]
16 | C=C1c2ccccc2O[C@H](C(=O)OCC)[C@@H]1C1CCCCC1 | inconclusive [inhibitor, full curve]
17 | CCCc1c(-c2ccc(F)cc2)ncn1CCc1ccccc1OC | inconclusive [inhibitor, partial curve]
18 | CC1(C(=O)NCc2ccccc2)CSCC(=O)N1C1CC1 (centres undefined) | inconclusive [inhibitor, full curve]
19 | CCCCCn1c(C(Cc2ccccc2)NC(C)=O)nc2ccccc21 (centres undefined) | inconclusive [inhibitor, partial curve]
20 | Cc1ccc(C)c2c1N(Cc1ccccc1)C(=O)C21OCCO1 | inconclusive [inhibitor, full curve]
21 | CC(C)CC1C(=O)N(Cc2cn(CCC3OCCCO3)nn2)CCS(=O)(=O)N1Cc1ccc(-c2ccc(F)cc2)cc1 (centres undefined) | active: 22.4 µM
22 | Cc1cc(C(=O)CN2C(=O)C(=O)N(CC(C)C)C2=O)c(C)n1-c1ccccc1F | inconclusive [inhibitor, single point]
23 | O=C(O)C(=O)/C(=C\c1ccc([N+](=O)[O-])cc1)c1ccc2ccccc2n1 | inconclusive [inhibitor, partial curve]

Row | SMILES | Potency
24 | COCCn1c(SCC(=O)Nc2ccccc2OC)nc2ccccc2c1=O | inconclusive [inhibitor, partial curve]
25 | Cc1ccc(S(=O)(=O)N2CCCCC2C(=O)O)cc1 (centres undefined) | inconclusive [inhibitor, full curve]
26 | Oc1c(Br)cc(Cl)cc1C=Nc1ccc(N2CCOCC2)cc1 | inconclusive [inhibitor, partial curve]
27 | CC(C)c1ccc(CC(=O)N2CCC2(C)C(=O)NCc2cccc3ccccc23)cc1 (centres undefined) | inconclusive [inhibitor, partial curve]
28 | Cc1ccc(N(Cc2ccccc2O)C(=O)c2ccccc2F)cc1 | inconclusive [inhibitor, partial curve]
29 | C(/C=C/c1ccccc1)=N/N1CCN(c2ccccc2)CC1 | inactive
30 | CCN(CC)S(=O)(=O)c1cc(NS(=O)(=O)c2cc(Cl)ccc2Cl)ccc1C | inconclusive [inhibitor, partial curve]
31 | c1ccc(-c2nc(C3CCCCC3)c3ccccc3n2)cc1 | inconclusive [inhibitor, single point]
32 | O=C(Nc1cc(S(=O)(=O)N2CCCCC2)ccc1Oc1ccccc1)C1=COCCO1 | inconclusive [inhibitor, single point]
33 | CC1=Nc2ccccc2/C1=C/c1c(N)n2c(S(=O)(=O)C(C)C)nsc2nc1=O | inactive
34 | CC1Oc2ccc(C#N)cc2N(Cc2cccc(F)c2)C1=O (centres undefined) | inconclusive [inhibitor, single point]
35 | CCCOc1c(OC)cccc1C1CC(=O)Nc2cc(OC)c(OC)c(OC)c21 (centres undefined) | inconclusive [inhibitor, partial curve]
36 | Cc1sc(N)c(C#N)c1C | inactive
37 | CC1(C)CC(=O)C2=C(C1)OC1=C(C(=O)CC(C)(C)C1)C2c1ccc(O)c([N+](=O)[O-])c1 | inconclusive [inhibitor, single point]
38 | Cc1ccc(OCC(=O)NC(=S)Nc2cccc(NC(=O)c3ccccc3Cl)c2)cc1 | inactive
39 | COc1ccc(OCC(=O)Nc2c(C(=O)N(CCN(C)C)Cc3ccco3)oc3ccccc23)cc1 | inactive
40 | O=C(/C=C/c1ccc(Cl)cc1)c1cccnc1 | inactive
41 | OCc1ccc(-c2ccccc2)c(-c2ccccc2)c1 | inconclusive [inhibitor, partial curve]
42 | CC(C)C[C@H](NC(=O)c1nc[nH]c1C(=O)N1CCc2ccccc2C1)C(=O)OCc1ccccc1 | inconclusive [inhibitor, partial curve]
43 | Cc1cccc(CN2CCc3c([nH]c4ccccc34)C2CC(C)C)n1 (centres undefined) | inconclusive [inhibitor, single point]
44 | CCOC(=O)c1sc(N)c(C(=O)OC)c1C | inactive
45 | COc1ccccc1-c1ccc(SCc2ccccc2F)nn1 | inconclusive [inhibitor, partial curve]
46 | CC(C)NC(=O)c1csc([C@@H]2O[C@H](CO)[C@H](O)[C@H](O)[C@H]2O)n1 | inactive

Row | SMILES | Potency
47 | O=C(c1cc2cc3ccc(Cl)cc3nc2o1)N1CCN(Cc2ccc3c(c2)OCO3)CC1 | inconclusive [inhibitor, single point]
48 | COc1ccc(S(=O)(=O)NC2CC2)cc1Br | inconclusive [inhibitor, partial curve]
49 | COC(=O)c1c(-c2ccc(OC)cc2)sc2ccc(OC)cc12 | inconclusive [inhibitor, single point]
50 | O=C(N/N=C/c1ccccc1Cl)c1[nH]c2ccc(Br)cc2c1-c1ccccc1 | inactive
51 | C[C@@]12CCC=C[C@H]1[C@H](c1ccoc1)N(Cc1ccccc1)C2=O | inconclusive [inhibitor, single point]
52 | CSc1nc(N2CCN(Cc3ccc4c(c3)OCO4)CC2)c2ccccc2n1 | inactive
53 | CC(=O)c1ccc(-c2c(CCO)sc3ccccc23)cc1 | inconclusive [inhibitor, single point]
54 | C=CCN(C(=O)CSC1=NC(=O)CN1C(C)=O)c1nc(C)c(-c2ccccc2)s1 | inconclusive [inhibitor, partial curve]
55 | COc1cc(C)ccc1S(=O)(=O)NC(=O)C1(C)CCN1C(=O)c1ccc(C(F)(F)F)nc1C (centres undefined) | inactive
56 | CC(C)CC1C(=O)N(Cc2cn(Cc3ccco3)nn2)CCS(=O)(=O)N1Cc1ccc(-c2ccncc2)cc1 (centres undefined) | inconclusive [inhibitor, partial curve]
57 | O=c1c2c([N+](=O)[O-])cc([N+](=O)[O-])cc2sn1-c1ccc(Br)cc1 | inactive
58 | CN(CCCC(=O)O)c1ccc(N=Nc2ccc([N+](=O)[O-])cc2)cc1 | inconclusive [inhibitor, partial curve]
59 | COc1ncccc1-c1cc2nc(NCCCN(C)C)n(C)c(=O)c2s1 | inactive
60 | COc1cc2c(cc1OC)C(C(=O)Nc1ccc(F)c(Cl)c1)CC(=O)N2 (centres undefined) | inactive
61 | COc1cc(/C=N/NC(=S)NCc2ccccc2)ccc1OCC#N | inactive
62 | O=S(=O)(Nc1cccc(-c2cn3cccnc3n2)c1)c1ccc(F)cc1 | inconclusive [inhibitor, single point]
63 | CCCCN(Cc1cccs1)S(=O)(=O)c1csc(C(N)=O)c1 | inconclusive [inhibitor, single point]
64 | Cc1ccc(OCc2nc3ccccc3n2C(C)C(=O)Nc2c(C)cccc2C)cc1 (centres undefined) | inconclusive [inhibitor, full curve]
65 | COc1ccc(Oc2cnc3ccccc3n2)cc1 | inactive
66 | COC(=O)[C@H]1C[C@@H](c2ccccc2)[C@H](C)C1(C)C | inconclusive [inhibitor, partial curve]
67 | O=C(NCc1cccnc1)c1ccc2sc([C@H]3C[C@H](O)[C@@H](CO)O3)nc2c1 | inactive
68 | COc1cc(-c2coc3c(C(=O)NCc4ccc(C(F)(F)F)cc4)cccc23)ccc1O | inconclusive [inhibitor, partial curve]
69 | COc1ccc(-c2nn(C)c(=O)c3ccccc23)cc1NC(=O)Cn1nc(C)c2ccccc2c1=O | inactive
